These results are taken from publication PMC10052957, “Exploring Synthetic Dihydrobenzofuran and Benzofuran Neolignans as Antiprotozoal Agents against Trypanosoma cruzi” (Pharmaceutics, 2023).

This assay has as its system amastigote forms of the T. cruzi Tulahuen lac-Z strain. Nature of the assay: In vitro antitrypanosomal activity against amastigotes of drug-sensitive T. cruzi Tulahuen lac-Z strain (CPRG/β-galactosidase readout in LLC-MK2 cells). The note with it: for SI Tulahuen Lac-Z Strain: CC50 of LLC-MK2 divided by IC50 at 72 h; for IC50: Trypanosoma cruzi, TULAHUEN, LLC-MK2, 72 h, read-out: IC50, Tulahuen Lac-Z Strain; for fold loss (decrease) of antitrypanosomal activity relative to parent compound: derivative versus parent DBN 1 or 2, Tulahuen lac-Z amastigotes.

With `COC(=O)C=Cc1ccc2c(c1)C(C(=O)OC)C(c1ccc(O)cc1)O2` (mixture of isomers) [Compound 1, (±)-trans-dehydrodicoumarate dimethyl ester], the “SI Tulahuen Lac-Z Strain” value worked out at 5.96.

Regarding `O=C(Cn1ccnc1[N+](=O)[O-])NCc1ccccc1` [BZN, benznidazole, reference compound], the “SI Tulahuen Lac-Z Strain” value worked out at 20.05.

The term IC50 denotes the concentration needed to halve the response being measured. With `COC(=O)C=Cc1cc(OC)c2c(c1)C(C(=O)OC)C(c1ccc(O)c(OC)c1)O2` (centres unmarked) [Compound 2], the “SI Tulahuen Lac-Z Strain” value worked out at 8.49 and the IC50 worked out at 7.96 µM.

On to `COC(=O)C=Cc1cc(O)c2c(c1)C(C(=O)OC)C(c1ccc(O)c(O)c1)O2` (centres unmarked) [Compound 3], for which the “SI Tulahuen Lac-Z Strain” value is listed as 1.90 and the IC50 was 16.2 µM.

Regarding `COC(=O)C=Cc1ccc2c(c1)C(C(=O)OC)C(c1ccc(OC(C)=O)cc1)O2` (centres unmarked) [Compound 4], the “SI Tulahuen Lac-Z Strain” value was 3.15, the half-inhibitory concentration (IC50) was 21.4 µM and the “fold loss (decrease) of antitrypanosomal activity relative to parent compound” value is reported as “two-fold”.

`COC(=O)C=Cc1cc(OC)c2c(c1)C(C(=O)OC)C(c1ccc(OC(C)=O)c(OC)c1)O2` (centres unmarked) [Compound 5]: the 50% inhibitory concentration (IC50) amounted to 31.6 µM.

In the case of `COC(=O)C1c2cc(C=CC(=O)O)ccc2OC1c1ccc(O)cc1` (centres unmarked) [Compound 6], the concentration for half-maximal inhibition (IC50) amounted to 229 µM.

`COC(=O)/C=C/c1ccc2oc(-c3ccc(O)cc3)c(C(=O)OC)c2c1` [Compound 7]: the half-maximal inhibitory concentration (IC50) was 75 µM.

Turning to `COC(=O)CCc1ccc2oc(-c3ccc(O)cc3)c(C(=O)OC)c2c1` [Compound 8], the concentration for half-maximal inhibition (IC50) came out at 119 µM.

In the case of `OCC=Cc1ccc2c(c1)C(CO)C(c1ccc(O)cc1)O2` (centres unmarked) [Compound 9], the IC50 turned out to be 247 µM and the “fold loss (decrease) of antitrypanosomal activity relative to parent compound” value is listed as 20 fold.

As to `COc1cc(C2Oc3c(OC)cc(C=CCO)cc3C2CO)ccc1O` (centres unmarked) [Compound 10], the IC50 came to 177 µM and the “fold loss (decrease) of antitrypanosomal activity relative to parent compound” value is 20 fold.

On to `COC(=O)CCc1ccc2c(c1)C(C(=O)OC)C(c1ccc(O)cc1)O2` (centres unmarked) [Compound 12], for which the IC50 was found to be 289 µM and the “fold loss (decrease) of antitrypanosomal activity relative to parent compound” value was 24 fold.

With `COC(=O)CCc1cc(OC)c2c(c1)C(C(=O)OC)C(c1ccc(O)c(OC)c1)O2` (centres unmarked) [Compound 13], the IC50 is 79.3 µM and the “fold loss (decrease) of antitrypanosomal activity relative to parent compound” value stood at 10 fold.

For `OCCCc1ccc2c(c1)C(CO)C(c1ccc(O)cc1)O2` (centres unmarked) [Compound 14], the half-maximal inhibitory concentration (IC50) came to 134 µM.

Take `COc1cc(C2Oc3c(OC)cc(CCCO)cc3C2CO)ccc1O` (centres unmarked) [Compound 15]: the IC50 turned out to be 149 µM.

Take `COC(=O)C=Cc1ccc2c(c1)C(C(=O)OC)C(c1ccc(OC)cc1)O2` (centres unmarked) [Compound 16]: the IC50 is 71.5 µM.

Regarding `COC(=O)C=Cc1cc(OC)c2c(c1)C(C(=O)OC)C(c1ccc(OC)c(OC)c1)O2` (centres unmarked) [Compound 17], the IC50 amounted to 72.3 µM.

Regarding `COC(=O)CCc1cc(OC)c2c(c1)C(C(=O)OC)C(c1ccc(OC)c(OC)c1)O2` (centres unmarked) [Compound 19], the half-maximal inhibitory concentration (IC50) is 301 µM.
